# Measured values reported in PubChem BioAssay.
# The shares of active, inactive and inconclusive entries below differ from those in the screen. Activity calls are given as the source filed them.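 Rule for the calls: active = viability at or below 27.92% in each of two runs, the all-compound median minus 4 SD; inconclusive = no clear call, values can overlap the other calls; inactive = the rest.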
# Experiment: viability of PTEN-null HCT116 cells – cell-based, HCT116 clonal line, CellTiter-Glo, pilot screen (AID 824);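 note: 0% = 20 µM Hyamine control and 100% = vehicle cell control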
# Settings: HCT116 PTEN-deleted viability, 60 h, at 10 µM, active compounds read low
row,Structure (SMILES),viability
1,CCN(CC)c1ccc(NC(=O)c2ccc(NC(=O)C3CCCO3)cc2)c(C)c1 (stereo not given),inconclusive: 98.6%
2,O=C1CC(c2ccccc2)n2nc(N3C(=O)CCC3=O)nc2N1 (stereo not given),inconclusive: 90.5%
3,Cc1cccc(NC(=O)Cn2cnc3c(cnn3-c3ccc(F)cc3)c2=O)c1C,inconclusive: 31.3%
4,Cc1cc(=O)n2[nH]c(C)c(-c3ccc(Cl)cc3)c2n1,inconclusive: 38.7%
5,CC1Cc2nc(SCC(=O)N3CCCc4ccccc43)n(C)c(=O)c2S1 (stereo not given),inactive: 73.4%
6,Cc1cc(NS(=O)(=O)c2ccc(NC(=O)CCCC(=O)O)cc2)nc(C)n1,inactive: 92.2%
7,O=S(=O)(NCC(O)COCc1ccco1)c1cccs1 (stereo not given),inconclusive: 85.1%
8,Cn1cc(S(=O)(=O)CC(=O)Nc2ccc3c(c2)OCCO3)c2ccccc21,inconclusive: 101%
9,O=C(Cn1c(=O)sc2ccccc21)Nc1ccc2c(c1)OCCO2,inconclusive: 96%
10,CCOc1ccccc1NC(=O)CSc1nnc(-c2cnccn2)n1C,inconclusive: 95.2%
11,CC(C)c1ccc(-c2nc(N3CCCCC3)[nH]c(=O)c2C#N)cc1,inconclusive: 104%
12,CSCCC1(C(=O)O)NC(c2ccccc2O)C2C(=O)N(C(C)C)C(=O)C21 (stereo not given),inactive: 94.7%
13,CCOCCCNC(=O)C(c1ccc(C)cc1)N(Cc1ccc2c(c1)OCO2)C(=O)c1cnccn1 (stereo not given),inconclusive: 103%
14,CCSc1oc(-c2ccco2)nc1S(=O)(=O)c1ccc(F)cc1,inconclusive: 77.6%
15,CC1(C)Cc2nc3sc4c(=O)n(CC(=O)NCc5ccco5)cnc4c3cc2CO1,inconclusive: 35.1%
